Measured values published in PubChem BioAssay AID463173 (ICCB-Longwood Screening Facility, Harvard Medical School, 2010).
Out of some 52,000 compounds screened, about 1,700 (3.3%) were called active. Cut-off read from the data, not from the text of the source: active = survival mostly below about 52% (no sharp cut-off); inactive = mostly above about 56%. The list shows a part of the results.

These molecules were tested on Wild type (assay: S. aureus survival, RN4220 and DeltatarO strains – OD600, teichoic acid synthesis inhibitors, primary screen (AID 463173)). Conditions: S. aureus RN4220 wild type/DeltatarO growth, OD600, 18 h, hits give low values, screened at 18.75 µg/mL (by protocol).
COc1ccc(CNc2ncnc3c2cnn3-c2ccc(Cl)cc2)cc1 was tested, and the survival was inactive: 70%. CCOC(=O)c1c(C)oc2nc(C)nc(NCC3CCN(Cc4ccc(F)cc4)CC3)c12 was tested, and the survival was inactive: 135%. In the case of Cc1ccc(CSC2=Nc3ccccc3C3=NC(CCC(=O)NCc4cccs4)C(=O)N23)c(C)c1 (configuration not stated), the survival is reported as inactive: 88%. With COc1ccc(Nc2ccc3cc(S(=O)(=O)N4CCCC4)ccc3n2)cc1OC the survival was inactive: 69%. In the case of O=C(Nc1ccc(Cl)c(-c2nc3ccccc3o2)c1)c1cccc2c(Cl)cccc12, the survival is reported as inactive: 67%. In the case of CCC(Oc1ccccc1)C(=O)N1CCN(Cc2cc(=O)n3nc(-c4cccc(C)c4)sc3n2)CC1 (configuration not stated), the survival is reported as inactive: 120%. In the case of Cc1cc(N2CCN(C)CC2)nc2ccc(NC(=O)Nc3ccc(F)cc3F)cc12, the survival is reported as inactive: 69%. With CCOC(=O)c1ccc(N2CCN(c3cc(Cl)ccc3C)CC2)c(NC(=O)Nc2ccc(OCC)cc2)c1 the survival was inactive: 57%. With Fc1ccc(-c2nc3c4c(-c5ccccc5)c(-c5ccccc5)oc4ncn3n2)cc1 the survival was inactive: 95%. For COc1cc(Cl)c(NC(=O)CC(C)S(=O)(=O)c2cc3c(cc2C)NC(=O)CO3)c(OC)c1 (configuration not stated), the survival was inactive: 68%. In the case of Cc1ccc(NS(=O)(=O)c2c(C)nc3sccn3c2=O)c(Cl)c1, the survival is reported as inactive: 131%. In the case of Cc1cc(OCc2nnc(SCC(=O)OC(C)C)o2)ccc1Cl, the survival is reported as inactive: 112%. Cc1ccc(-n2c(=O)c3c(c4cc(C)ccc4n3C)n(CC(=O)NCC3CCCO3)c2=O)cc1 (configuration not stated) was tested, and the survival was inactive: 84%. With CC1=C(C(=O)Nc2ccccc2)C(c2ccco2)C(C#N)=C(SCC(=O)Nc2ccccc2)N1 (configuration not stated) the survival was inactive: 114%. With Cc1ccc(NC(=O)CSc2nncn3c2cc2sccc23)cc1F the survival was inactive: 74%. In the case of CCCCOC(=O)c1ccc(NC2=NS(=O)(=O)c3ccccc32)cc1, the survival is reported as inactive: 78%. For Cc1nn(-c2ccc(N3CCCC3)nn2)c(C)c1CCC(=O)Nc1ccccc1, the survival was inactive: 92%. For Cc1cccc(NC(=O)CCn2nc(C)c3c(C)n(-c4ccccc4)nc3c2=O)c1C, the survival was inactive: 65%. With CC(C)c1ccc(NC(=O)c2cc(S(=O)(=O)N3CCc4ccccc4C3)ccc2F)cc1 the survival was inactive: 128%. In the case of Cc1ccc(-c2nc3n(n2)C(=O)CC(c2ccc(C)cc2)S3)cc1 (configuration not stated), the survival is reported as inactive: 92%. Cc1ccc2cc(CN(Cc3cccnc3)C(=O)c3cccnc3)c(=O)[nH]c2c1 was tested, and the survival was inactive: 108%. For COc1ccc(S(=O)(=O)NCc2ccc3c(c2)CCN3C(C)=O)cc1OC, the survival was inactive: 84%. With CCOc1ccc(CN2C(=O)c3ccccc3Sc3ccc(C(=O)NCCCN4CCOCC4)cc32)cc1 the survival was inactive: 145%. For Cc1ccc(NC(=O)CCS(=O)(=O)c2ccc3nc(C)sc3c2)c(C)c1, the survival was inactive: 102%. With O=C(Nc1ccc(Cl)c(Cl)c1)N(Cc1c[nH]c2ccccc12)C1CCCCC1 the survival was inactive: 86%. With CCOc1ccc(S(=O)(=O)N(CC(=O)NCCc2ccc(OC)cc2)c2ccccc2)cc1 the survival was inactive: 101%. COc1ccccc1N1CCN(c2c(CN3CCCC3)c(=O)oc3ccccc23)CC1 was tested, and the survival was inactive: 77%. CN(C)c1ncc(C(=O)NCc2ccccc2Cl)cn1 was tested, and the survival was inactive: 64%. For CCOc1ccc(C(=O)Nc2ccc(NC(=O)c3ccccc3)cc2)cc1Br, the survival was inactive: 79%. With CCOC(=O)c1ccc(N2CCN(c3ccc(F)cc3)CC2)c(NC(=O)Nc2ccc(CC)cc2)c1 the survival was inactive: 131%. In the case of COC(=O)c1ccc([C@H]2Nc3ccc(S(=O)(=O)Nc4ccc(F)cc4)cc3[C@H]3C=CC[C@H]32)cc1, the survival is reported as inactive: 69%. Cc1ccc(S(=O)(=O)N2CCCc3cc(NS(=O)(=O)c4ccccc4)ccc32)cc1 was tested, and the survival was inactive: 77%. In the case of Cc1cc(OCC(=O)Nc2sc3c(c2C#N)CCC(C)C3)ccc1Cl (configuration not stated), the survival is reported as inactive: 73%. For O=C(c1ccco1)N1CCN(C2c3cccc4cccc(c34)C2NS(=O)(=O)c2ccccc2)CC1 (configuration not stated), the survival was inactive: 115%. Cc1ccc2[nH]c(=O)c3cc(C(=O)NCc4cccc(Cl)c4)sc3c2c1 was tested, and the survival was inactive: 72%. For CCOC(=O)CNC(=O)Nc1cc(C(=O)NCc2ccc(C(C)C)cc2)ccc1N1CCCC1, the survival was inactive: 78%. In the case of Cc1cc(C)c(/C=C/c2onc(C)c2S(=O)(=O)N2CCC(C(=O)Nc3cccc(C)c3C)CC2)c(C)c1, the survival is reported as inactive: 125%. For COc1ccccc1-c1noc(CSc2nnc(-c3ccccc3)n2-c2ccc(C)c(C)c2)n1, the survival was inactive: 81%. CCOC(=O)c1c(C)oc2nc(C)nc(N(C)Cc3ccccc3)c12 was tested, and the survival was inactive: 125%. For CC(=O)c1ccc(NC(=O)CSc2nc(-c3ccccc3C)nc3c2c(=O)n(C)c(=O)n3C)cc1, the survival was inactive: 121%. O=C(C1CCCN(S(=O)(=O)c2cccc3nonc23)C1)N1CCN(c2cccc(C(F)(F)F)c2)CC1 (configuration not stated) was tested, and the survival was inactive: 77%. CCc1cc2cc3c(cc2nc1SCC(=O)N1CCCCC1)OCO3 was tested, and the survival was inactive: 102%. In the case of O=C(CSc1ncc(-c2ccc(Cl)cc2)[nH]1)Nc1ccccc1F, the survival is reported as inactive: 64%. With CCOc1ccc(C(=O)c2cn(Cc3cccc(OC)c3)c3cc4c(cc3c2=O)OCO4)cc1 the survival was inactive: 86%. In the case of Cc1ccc(S(=O)(=O)N2CCCC2C(=O)Nc2ccc(Br)cc2)cc1 (configuration not stated), the survival is reported as inactive: 112%. With COc1cc2c(cc1OC)C(CC(=O)O)N(C(=O)Nc1cc(OC)c(OC)c(OC)c1)CC2 (configuration not stated) the survival was inactive: 77%. With Cc1cc(C)c2c(n1)sc1c(Cl)ncnc12 the survival was inactive: 109%. In the case of Cn1c(SCCN2CCCC2)nnc1-c1ccncc1, the survival is reported as inactive: 112%. Cc1ccc(C)c(N2CCN(CCCNC(=O)c3ccc4nc(N5CCC(C)CC5)sc4c3)CC2)c1 was tested, and the survival was active: 1%. For CCc1ccc(C2=NN(CCC(=O)NCCc3ccccc3)C(=O)CC2)cc1, the survival was inactive: 78%. Cc1ccc(-n2cnc3ccccc3c2=O)cc1Cl was tested, and the survival was inactive: 91%. With CCOC(=O)C1=C(C)NC(=O)C1CC(=O)O (configuration not stated) the survival was inactive: 98%. With CCc1c(C)c2cc3c(c(C)c2oc1=O)OCN(CCc1ccc(OC)c(OC)c1)C3 the survival was inactive: 82%. For CC(=O)c1ccc(Nc2cc(C)nc3nc(Cc4ccccc4)nn23)cc1, the survival was inactive: 82%. In the case of CCc1cccc(NC(=O)C(Cc2ccccc2)NS(=O)(=O)c2cccs2)c1 (configuration not stated), the survival is reported as inactive: 56%. In the case of COc1ccc(-n2c(=O)c3c4c(sc3n(Cc3ccccc3C)c2=O)CCCC4)c(OC)c1, the survival is reported as inactive: 61%. COc1ccc(N(CC(=O)NCCc2ccccc2)S(=O)(=O)c2c(C)nn(C)c2C)cc1 was tested, and the survival was inactive: 114%. For CCOc1nc(NCCO)nc(NCCC2=CCCCC2)n1, the survival was inactive: 104%. With CCCn1c2ccccc2c2cnn(CC(=O)Nc3cc(OC)c(OC)c(OC)c3)c(=O)c21 the survival was inactive: 123%. For Cc1ccc(N2CCN(C(=O)Cn3ncc4c([nH]c5ccc(C)cc54)c3=O)CC2)c(C)c1, the survival was inactive: 71%. CCC1(C)CC(=O)c2c(ccc3oc(C(=O)Nc4ccc(C(C)=O)cc4)c(C)c23)O1 (configuration not stated) was tested, and the survival was inactive: 93%. CCOc1ccc(C(=O)NCCc2csc(-c3cccc(C)c3)n2)cc1 was tested, and the survival was inactive: 78%. COc1ccc(C(=O)OCC(=O)c2ccc(C)cc2)cc1OC was tested, and the survival was inactive: 122%. With CC(C)c1ccc(Nc2sc(C(=O)c3ccccc3)c(N)c2S(=O)(=O)c2ccccc2)cc1 the survival was inactive: 79%. In the case of CCc1nc2ccc(C(=O)N3CCN(c4cccc(Cl)c4)CC3)cc2nc1CC, the survival is reported as inactive: 85%. In the case of CC(C)CC(=O)Nc1nnc(S(=O)(=O)N2c3ccccc3CC2C)s1 (configuration not stated), the survival is reported as inactive: 86%. CSc1nnc(COc2ccc(Cl)cc2)n1C was tested, and the survival was inactive: 101%. CCOc1ccc(CCNC(=O)CCCn2c(=O)c3cccn3c3cccnc32)cc1 was tested, and the survival was inactive: 97%. With COc1ccc(C2CCN(C(=O)N(C(C)C)C(C)C)CC2)cc1 the survival was inactive: 111%. For OC(CNCC1CCCO1)Cn1c2ccccc2c2ccccc21 (configuration not stated), the survival was inactive: 113%. With CCOCCOC(=O)c1ccc2c(c1)N(Cc1ccccc1C#N)C(=O)c1ccccc1S2(=O)=O the survival was inactive: 80%. In the case of CCN(c1ccccc1)S(=O)(=O)c1ccc(NC(=O)c2nc(S(C)(=O)=O)ncc2Cl)cc1, the survival is reported as active: 0%. In the case of CCc1ccc(C(=O)COC(=O)C(NC(=O)C2CCC(C)CC2)C(C)C)cc1 (configuration not stated), the survival is reported as inactive: 82%. With COc1cc(CNC(=O)c2cnc3c(-c4cccc(C)c4)c(C)nn3c2C)cc(OC)c1OC the survival was inactive: 74%. COc1ccc(-c2cc3ccc(O)c(CN4CCN(C)CC4)c3oc2=O)cc1OC was tested, and the survival was inactive: 120%. CCCc1ccc(OCC(=O)Nc2sc3c(c2C(=O)OCC)CCC(C(C)(C)C)C3)cc1 (configuration not stated) was tested, and the survival was inactive: 117%. In the case of CC(=O)Nc1ccc(Nc2ccc3cc(S(=O)(=O)N4CCCCC4)ccc3n2)cc1, the survival is reported as inactive: 67%. In the case of O=C(NC1CC(=O)N(c2ccc(Cl)cc2)C1)c1cc2ccccc2o1 (configuration not stated), the survival is reported as inactive: 64%. For Nc1cc(=O)nc(SCC(=O)Nc2ccccc2)n1CCc1ccccc1, the survival was inactive: 69%. For Cc1cccc(CNS(=O)(=O)c2ccc(-c3coc(C)n3)cc2)c1, the survival was inactive: 78%. In the case of CCOC(=O)c1c(-c2ccc(OC)c(OC)c2)csc1NC(=O)c1ccccc1F, the survival is reported as inactive: 67%. With COc1ccccc1Nc1nc(-c2ccccc2)c(CC(=O)O)s1 the survival was inactive: 54%. For COc1ccc2c(c1)c1c(c(=O)n(-c3cccc(C)c3)c(=O)n1CC(=O)NCCC1=CCCCC1)n2C, the survival was inactive: 74%. O=c1c2cccnc2n(Cc2cccc(F)c2)c(=O)n1Cc1ccc(F)cc1 was tested, and the survival was inactive: 116%. With CCC(Nc1ccc(-c2nc(-c3cccnc3)no2)cc1[N+](=O)[O-])c1ccccc1 (configuration not stated) the survival was inactive: 83%. In the case of COc1ccc2[nH]cc(CCNC(=O)Nc3cc(C)cc(C)c3)c2c1, the survival is reported as inactive: 124%. For Cc1ccc2nc3c(cc(C(=O)NC4CCCC4)c(=N)n3C(C)C)c(=O)n2c1, the survival was inactive: 80%.
